“Also recorded” adds a separate entry of the source.
Legend:
[1] = tested on: HMG1 (recombinant, native; immobilized, soluble); assay: Direct and sandwich (capture) ELISA comparing forms of HMG1; format: binding
Protocol: Direct ELISA (immobilized HMG1): Individual wells of a 96-well immunoplate (EIA/RIA plate, High binding, Costar) were coated with HMGB-1 at 5 μg/ml in PBS at 4° C. overnight. The plate was then blocked with 4% milk powder dissolved in PBS at 37° C. for 1 hour. The blocking solution was removed and replaced with human anti-HMG1 antibodies at various concentrations (see FIG. 4A). The plate was then washed (ELX-405 Plate washer, BIO-TEK) and secondary antibody (anti-human IgG-HRP, PIERCE) was added at a final concentration of 1:125,000 at 37° C. for 1 hour. HRP activity was detected with Sureblue HRP substrate (KPL). Plates were read at 450 nm using a Kinetic Microplate Reader (Molecular Devices).
Sandwich ELISA (soluble HMG1): Immunoplates (EIA/RIA plate, High binding, Costar) were coated with anti human IgG Fc at 10 μg/ml in PBS (pH 7.2) and incubated at 4° C. overnight. The coating reagent was removed and the plates were rinsed briefly with PBS. The plates were then blocked with 4% milk for 1 hour at 37° C. and rinsed with PBS. The anti-HMG1 antibodies were diluted in 4% milk. For serial dilutions, the antibodies were used at a starting concentration of 20 μg/ml. […] HRP activity was detected with Sureblue HRP substrate (KPL). Plates were read at 450 nm using a Kinetic Microplate Reader (Molecular Devices).

[2] = Differential scanning calorimetry; format: physicochemical; parameters: unit: °C; conditions: in °C (unit assumed)
Protocol: Differential Scanning Calorimetry: Thermal melting temperatures (Tm) were measured with a VP-DSC (MicroCal, LLC) using a scan rate of 1.0° C./min and a temperature range of 25-120° C. A filter period of 8 seconds was used along with a 5 minute pre-scan thermostating. Samples were prepared by dialysis into 25 mM Histidine-HCl, pH 6 using Pierce dialysis cups (3.5 kD). Average Mab concentrations were 50 μg/mL as determined by A280. Melting temperatures were determined following manufacturer procedures using Origin software supplied with the system. Briefly, multiple baselines were run with buffer in both the sample and reference cell to establish thermal equilibrium. After the baseline was subtracted from the sample thermogram, the data were concentration normalized and fitted using the deconvolution function.

[3] = tested on: recombinant HMG1 stimulated cytokine release from human PBMCs; assay: Inhibition of cytokine release from PBMCs, recombinant HMG1; format: cell-based; conditions: among antibodies examined
Protocol: Inhibition of Cytokine Release: Human peripheral blood mononuclear cells (PBMCs) were isolated from the peripheral blood of healthy volunteers by a density gradient centrifugation. Freshly drawn heparinized whole blood was mixed with two volume of PBS. The diluted blood was gently layered on the surface of Histopaque-1077 (Sigma-Aldrich) and centrifuged at 400×g, at RT for 30 minute. PBMCs were collected from the interface between the plasma and the density gradient solution. After washing in PBS 3×, the purified PBMCs were resuspended in RPMI-1640 medium (GIBCO BRL) containing 100 U/ml penicillin, 100 μg/ml streptomycin and […] β-mercaptoethanol. 1×10^5 of cells was added in each well of 96-well cell culture plates. […]
The culture media were analyzed for inflammatory cytokines using Beadlyte human multi-cytokine flex kit from Upstate by Luminex 100 (Luminex Corp.). Proinflammatory cytokines TNF-α, IL-6, IL-1β and IL-12 (p40) were measured for cells stimulated with recombinant HMG1. In addition, TNF-α, IL-6, IL-1β and IL-8 were measured for cells stimulated with native activated HMG1.
Cytokine release data is presented as mean of triplicates±standard deviations. […] It was calculated by PRISM program.

[4] = Isoelectric focusing gel electrophoresis; format: physicochemical
Protocol: Isoelectric Focusing Gel Electrophoresis: Isoelectric points were determined using a Pharmacia Biotech Multiphor 2 electrophoresis system with a multi temp 3 refrigerated bath recirculation unit and an EPS 3501 XL power supply. Pre-cast ampholine gels (Amersham Biosciences, pI range 2.5-10) were loaded with 5 μg of protein. Broad range pI marker standards (Amersham, pI range 3-10, 8 μL) were used to determine relative pI for the Mabs. Electrophoresis was performed at 1500 V, 50 mA for 105 minutes. The gel was fixed using a Sigma fixing solution (5×) diluted with purified water to 1×. Staining was performed overnight at room temperature using Simply Blue stain (Invitrogen). Destaining was carried out with a solution that consisted of 25% ethanol, 8% acetic acid and 67% purified water. Isoelectric points were determined using a Bio-Rad Densitometer relative to calibration curves of the standards.

B1: S6: human anti-HMG1 antibody, ATCC PTA-6143; VL/VH aa SEQ ID NO: 9/11 (antibody, listed as Homo sapiens, V domains shown)
VH: EVQLLESGGGLVQPGGSLRLSCAASGFTFSWYDMSWVRQAPGKGLEWVSRISPSGGYTMYADSVKGRFTISRDNSKNTLYLQMNSLRAEDTAVYYCARLEVGATSGGTAFDIWGQGTMVTVSS
VL: [gap - about 100 residues]
binding to recombinant HMG1 versus native HMG1 [1]: better binding to rHMG1; also recorded: bind better to recombinant HMG1 than to native nuclear HMG1
Tm [2]: 76.3
comparison as inhibitor of cytokine / NO release [3]: among the best inhibitor of IL-1β, TNF-α, IL-6 and NO release
PI [4]: 8.81
